Test results: PubChem BioAssay AID1460 (National Center for Advancing Translational Sciences (NCATS), 2008)
Where “and” joins values, the source holds several entries; their conditions need not be identical. Equal entries are not always repeated. About 5,800 (2.1%) of roughly 270,000 compounds were called active. Inconclusive means that the source gave no clear call. Such entries were picked first, then a sample of the others. Calls follow the shape of the dose curve; as a rule, active = well fitted inhibition curve with a large enough effect; inconclusive = small, poorly fitted or top-dose-only effect; inactive = flat fitted curve, though single readings scatter. A potency beside an inconclusive call is a rough fit, not a confirmed value.

biological target: Microtubule-associated protein tau (Homo sapiens) (UniProt P10636); assay: qHTS for Inhibitors of Tau Fibril Formation, Thioflavin T Binding; settings: recombinant tau K18 P301L (four-repeat tau fragment), heparin-induced fibrillization, ThT fluorescence; series mostly up to 57.4 µM; also: nearly all actives have a fitted effect of over 55% in size
Sequence of UniProt P10636 (P10636 whole entry, looked up, the tested form may be a part): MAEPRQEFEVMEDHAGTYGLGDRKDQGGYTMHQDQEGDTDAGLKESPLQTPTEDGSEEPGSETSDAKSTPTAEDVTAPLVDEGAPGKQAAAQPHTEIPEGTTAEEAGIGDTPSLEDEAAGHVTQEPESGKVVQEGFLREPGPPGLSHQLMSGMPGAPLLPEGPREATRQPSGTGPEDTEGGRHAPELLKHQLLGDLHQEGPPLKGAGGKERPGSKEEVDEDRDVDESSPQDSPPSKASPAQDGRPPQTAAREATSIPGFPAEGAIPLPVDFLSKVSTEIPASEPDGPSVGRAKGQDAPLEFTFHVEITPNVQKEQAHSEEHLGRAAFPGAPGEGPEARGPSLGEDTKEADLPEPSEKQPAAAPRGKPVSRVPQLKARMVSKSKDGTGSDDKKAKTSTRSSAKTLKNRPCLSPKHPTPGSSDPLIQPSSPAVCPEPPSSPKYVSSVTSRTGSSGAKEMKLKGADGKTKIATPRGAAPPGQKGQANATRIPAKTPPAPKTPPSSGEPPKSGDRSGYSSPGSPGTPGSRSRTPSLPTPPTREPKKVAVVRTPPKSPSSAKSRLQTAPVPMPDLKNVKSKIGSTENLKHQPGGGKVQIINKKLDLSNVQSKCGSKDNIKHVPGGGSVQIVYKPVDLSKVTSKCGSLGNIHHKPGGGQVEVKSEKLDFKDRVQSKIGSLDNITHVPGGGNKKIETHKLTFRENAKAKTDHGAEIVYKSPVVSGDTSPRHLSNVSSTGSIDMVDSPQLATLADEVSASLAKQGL
Method in brief: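 K18 P301L tau (15 uM + 0.24 uM Alexa 594-tagged), heparin 20 uM, NaOAc pH 7, 6 h 37 C; ThT 30 uM, 1 h RT, ex 450/em 510 nm.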
Potency is read from the fitted curve at half-maximal effect; tags tell the direction and shape of the fitted curve.

| SMILES | Potency |
| --- | --- |
| CC(=O)c1cc(-c2ccccc2)[nH]c1N1CCCC1 | active: 14.1 µM |
| Cc1nc2cc(-c3cccc(F)c3)nn2c(C)c1CCC(=O)NC(C)CCc1ccco1 (stereo not drawn) | inconclusive: 31.6 µM [inhibitor, partial curve] |
| COc1ccccc1OCCn1cc(C#N)c2ccccc21 | inactive |
| Brc1ccc(-c2cnc(-c3cccs3)o2)cc1 | inconclusive: 31.6 µM [inhibitor, partial curve] |
| O=C(NN1C(=O)/C(=C\c2ccc(O)c([N+](=O)[O-])c2)SC1=S)c1ccccc1Cl | active: 3.16 µM |
| O=C(CSc1ccc(-c2cccs2)nn1)NCc1ccccc1Cl | inactive |
| Cc1cc(=O)[nH]c(-n2nc(C)c(Oc3ccccc3O)c2C)n1 | inactive |
| COc1ccc(S(=O)(=O)NN(C)c2nc(C(F)(F)F)nc3ccccc23)cc1 | inactive |
| C=CCc1ccccc1OCC(O)CN1CCN(c2ccccc2F)CC1 (stereo not drawn) | inconclusive: 12.6 µM [inhibitor, partial curve] |
| CC1(c2ccc(OC(F)F)cc2)NC(=O)N(CC(=O)Nc2ccc3c(c2)OCO3)C1=O (stereo not drawn) | inconclusive: 12.6 µM [inhibitor, partial curve] |
| CCOC(=O)c1cnc(-n2nc(C)cc2C)nc1Nc1ccccc1OC | inactive |
| COc1ccc(NC(=S)N2CCCC(c3nc4ccc(C)cc4[nH]3)C2)cc1 (stereo not drawn) | inconclusive: 44.7 µM [inhibitor, single point] |
| CCOC(=O)c1sc2nc(CC(=O)OC)nc(N3CCN(c4ccccn4)CC3)c2c1C | inconclusive: 14.1 µM [inhibitor, partial curve] |
| COc1ccc(S(=O)(=O)Nc2c(C(=O)O)[nH]c3ccccc23)cc1OC | inconclusive: 25.1 µM [inhibitor, partial curve] |
| COc1cccc(C2=CC(c3ccccc3F)n3c(nc4ccccc43)N2)c1 (stereo not drawn) | inconclusive: 11.2 µM [inhibitor, partial curve] |
| CCC(C(=O)N1CCN(c2ccccc2)CC1)n1nc(C)c2sc3ccccc3c2c1=O (stereo not drawn) | inactive |
| COc1ccccc1NS(=O)(=O)c1cc(NC(=O)c2cc3ccccc3oc2=O)ccc1C | inactive |
| Clc1ccc(CSc2nnc(-c3ccccn3)n2Cc2ccco2)c(Cl)c1 | inactive |
| CCc1ccc(-c2cn(-c3nc(C)cc(C)n3)c(=N)o2)cc1 | inconclusive: 28.2 µM [inhibitor, partial curve] |
| O=C(c1ccc2c(Cl)c3c(nc2c1)CCCC3)N1CCN(c2ccccc2F)CC1 | inconclusive: 15.8 µM [inhibitor, partial curve] |
| O=C(Nc1nnc(SCc2cc(=O)n3cc(Cl)ccc3n2)s1)c1cccc(F)c1 | inactive |
| COc1ccc(/C=C2/CCc3ccccc3C2=O)cc1OC | inconclusive: 22.4 µM [inhibitor, partial curve] |
| CCn1cc(Cl)c(C(=O)Nc2nc3ccccc3n2CCN2CCCCC2)n1 | inactive |

| SMILES | Potency |
| --- | --- |
| CCN1CCN(Cc2nc3c(c(=O)[nH]c(=O)n3C)n2Cc2ccccc2Cl)CC1 | inactive |
| CCCC(=O)Nc1ccc(C(=O)/C=C/c2ccc(SC)cc2)cc1 | inconclusive: 5.62 µM [inhibitor, partial curve] |
| COc1ccc(NC(=O)CN2C(=O)C3(SCC(=O)N3c3cccc(OC)c3)c3ccccc32)cc1 (stereo not drawn) | inactive |
| CSc1nc(O)c(C(c2cccc([N+](=O)[O-])c2)c2c(O)nc(SC)[nH]c2=O)c(=O)[nH]1 | active: 11.2 µM |
| Cc1cccc(Oc2ccc(S(=O)(=O)N3CCCCC3)cc2N)c1 | inactive |
| CCOc1ccc(CSC2=NCCN2)cc1Cl | inconclusive: 39.8 µM [inhibitor, single point] |
| CCOc1cc(CNC(=O)c2ccc3nc(CCc4ccccc4)oc3c2)ccc1OC | inconclusive: 1.41 µM [inhibitor, full curve] |
| COC(=O)c1c(N2C(=O)[C@H]3[C@@H](C2=O)[C@]2(C(=O)Nc4c(C)cc(C)cc42)N2CCC[C@@H]32)sc(C)c1C | inconclusive: 15.8 µM [inhibitor, partial curve, poor fit] |
| CSCC[C@H](NC(=O)c1ccc(Cl)c([N+](=O)[O-])c1)c1nc2ccccc2[nH]1 | inconclusive: 22.4 µM [inhibitor, single point] |
| O=C(CCCCn1c(=O)c2ccccc2n(CC(=O)Nc2cccc(F)c2)c1=O)NCCc1ccccc1 | inactive |
| COc1ccc2[nH]cc(S(=O)(=O)c3ccc(C)c(C)c3)c(=O)c2c1 | inactive |
| COC(=O)C1=C(C(=O)OC)SC2(S1)C(C(=O)OC)=C(C(=O)OC)SC1=C2c2cc(C)cc(C)c2NC1(C)C | active: 14.1 µM |
| CC(=O)NCCC(Cc1ccccc1)c1ccco1 (stereo not drawn) | inactive |
| c1ccc(-c2cc(-c3ccncc3)nc3ccc4ccccc4c23)cc1 | inconclusive: 14.1 µM [inhibitor, partial curve] |
| COc1ccccc1OCc1ccc(C(=O)NN)cc1 | inconclusive: 17.8 µM [inhibitor, single point] |
| Nc1ccc(/C=C/C(=O)c2cccs2)cc1 | inconclusive: 10 µM [inhibitor, partial curve] |
| COc1ccccc1-c1noc(-c2ccc(NC(C)C)c([N+](=O)[O-])c2)n1 | inactive |
| COc1ccc(CN(CC2CCC(C(=O)O)CC2)C(=S)Nc2cc(C)cc(C)c2)cc1 (stereo not drawn) | inconclusive: 25.1 µM [inhibitor, partial curve, poor fit] |
| C=CC(COCc1ccccc1)N(Cc1ccccc1)S(=O)(=O)c1ccccc1Br (stereo not drawn) | inconclusive: 2.82 µM [activator, single point] |
| COc1ccc(-n2cc(C(=O)c3ccc4ccccc4c3O)cn2)cc1 | inconclusive: 2.51 µM [inhibitor, full curve] |
| COc1ccc(Cn2c(=O)[nH]c3cc(C(=O)N4CCN(c5cc(Cl)ccc5C)CC4)ccc3c2=O)cc1 | inactive |
| O=C(COc1ccccc1[N+](=O)[O-])N1CCN(S(=O)(=O)c2ccccc2)CC1 | inactive |
| O=C(NC1CCN(Cc2ccccc2)CC1)c1ccc(Oc2cc(Cl)cc(Cl)c2)o1 | inconclusive: 10 µM [inhibitor, partial curve] |

| SMILES | Potency |
| --- | --- |
| CCCCCCCCCCCCCCCCCC(=O)OCC(C)O (stereo not drawn) | active: 14.1 µM |
| COC(=O)CSc1nnc(-c2ccc(S(=O)(=O)N3CCC(C)CC3)cc2)o1 | inconclusive: 35.5 µM [activator, partial curve] |
| O=S1(=O)C=C(Sc2nnc(-c3ccccc3)o2)c2ccccc21 | inconclusive: 3.16 µM [inhibitor, single point] |
| O=C1C2Sc3[nH]c(=O)sc3C(c3cc([N+](=O)[O-])ccc3O)C2C(=O)N1c1ccccc1 (stereo not drawn) | inconclusive: 15.8 µM [inhibitor, partial curve] |
| Cc1onc(C(=O)NN)c1C(=O)N1CCN(C(c2ccccc2)c2ccccc2)CC1 | inconclusive: 39.8 µM [inhibitor, single point] |
| CC(=O)c1ccc2c3c(cccc13)C(=O)N(CCc1ccccc1)C2=O | inconclusive: 2.51 µM [inhibitor, full curve] |
| Cn1cc(CNC(=O)C23CC4CC(CC(C4)C2)C3)cn1 | inactive |
| COc1cc(/C=C(\C#N)C(N)=O)cc(CSc2nc3ccccc3s2)c1O | inconclusive: 25.1 µM [inhibitor, partial curve] and inconclusive: 17.8 µM [inhibitor, partial curve] and inconclusive: 15.8 µM [inhibitor, partial curve] |
| CCOC(=O)C1CCN(c2ncnc3c2oc2ccc(Cl)cc23)CC1 | inconclusive: 20 µM [inhibitor, partial curve, poor fit] |
| S=C(NCc1ccco1)N1CCN(c2nc(-c3ccccc3)cs2)CC1 | inconclusive: 3.55 µM [inhibitor, full curve] |
| COc1cc(/C=N\Nc2cc(=O)n(C)c(=O)n2C)ccc1O | inconclusive: 14.1 µM [inhibitor, partial curve] |
| Cc1[nH]c2ccccc2c1SCC(=O)NC1CCCCC1 | inconclusive: 28.2 µM [inhibitor, partial curve] |
| CCOC(=O)c1sc(/N=C/C2=C(O)CC(C)(C)CC2=O)c(C(=O)OCC)c1C | inconclusive: 3.16 µM [inhibitor, single point] |
| CC1(C)Cc2c(ccc3ccccc23)C2=C(C(=O)N3CCCC3)C(=O)C(=O)N21 | inactive |
| Oc1ccc(N=Cc2ccc(OCc3ccccc3)cc2)cc1 | active: 3.98 µM |
| CC(C)(C)C(=O)Nc1nc(-c2ccc3c(c2)OCO3)cs1 | inconclusive: 14.1 µM [inhibitor, partial curve] |
| COc1cc(OC)c(N(C)C(=O)c2sc3nc4n(c(=O)c3c2C)CCCC4)cc1Cl | inconclusive: 31.6 µM [inhibitor, partial curve] |
| Cc1ccc(Nc2nc3ccccc3nc2Nc2c(C)n(C)n(-c3ccccc3)c2=O)cc1 | inconclusive: 2.82 µM [inhibitor, single point] |
| COc1ccc(NC(=O)COC(=O)C2CCC(C(C)(C)C)CC2)c([N+](=O)[O-])c1 (stereo not drawn) | inconclusive: 20 µM [inhibitor, partial curve, poor fit] |
| COc1ccc(-n2nc([N+](=O)[O-])c(=NCCc3cccc(C)c3)n2O)cc1 | inconclusive: 7.94 µM [inhibitor, partial curve] |
| O=C(NNC(=O)C1[C@H]2CCCC[C@@H]12)c1ccc(=O)oc1 (stereo partly drawn) | inconclusive: 31.6 µM [inhibitor, single point] |
| O=C(CCN1CCOCC1)c1ccc(Cl)cc1 | inactive |
